Consider 110 sequences from the supplement of paper PMC3334620.

Whole data set: some 33,000 sequences, median “E-score (-0.5 to 0.5)” near -0.016, cut for the highest 2% near 0.32. The list shows a part of the results.

The target of the assay is T1, Stp1 (UniProt B3LFK1).
T1 sequence: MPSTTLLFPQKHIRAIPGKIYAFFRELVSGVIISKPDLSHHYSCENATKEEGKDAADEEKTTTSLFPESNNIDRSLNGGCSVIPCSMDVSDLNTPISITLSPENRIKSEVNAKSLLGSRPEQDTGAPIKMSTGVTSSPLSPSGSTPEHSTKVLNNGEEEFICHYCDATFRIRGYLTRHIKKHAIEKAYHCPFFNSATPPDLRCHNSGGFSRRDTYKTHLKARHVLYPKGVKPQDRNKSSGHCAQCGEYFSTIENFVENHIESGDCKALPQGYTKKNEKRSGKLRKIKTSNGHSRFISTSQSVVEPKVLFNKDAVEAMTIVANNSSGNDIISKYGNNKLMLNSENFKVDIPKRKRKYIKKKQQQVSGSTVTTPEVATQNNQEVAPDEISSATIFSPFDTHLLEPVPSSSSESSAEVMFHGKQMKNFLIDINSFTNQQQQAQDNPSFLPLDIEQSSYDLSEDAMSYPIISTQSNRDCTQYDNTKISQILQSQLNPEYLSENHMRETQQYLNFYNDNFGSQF
The assay can be described thus: PBM E-score (8-mer binding enrichment) (E-score (-0.5 to 0.5)); higher = stronger / more preferred TF binding; most listed sequences are background and not binding sites. The following applies: protein concentration: 200 nM; construct: GST-full length. As to the method:
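Universal 'all 10-mer' protein binding microarrays (Agilent AMADID 015681) probed with GST-tagged S. cerevisiae TFs (full-length or DBD) made by in vitro transcription/translation (PURExpress), about 100-200 nM. Bound TF was detected with fluorescent anti-GST. Each ungapped 8-mer (which stands for itself and its reverse complement) is scored by the PBM enrichment score (E-score), a modified Wilcoxon-Mann-Whitney statistic from -0.5 to +0.5, computed with the Universal PBM Analysis Suite. Scale: above 0.35 generally sequence-specific binding.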
With CAAGTGTG, the “PBM E-score” value came out at 0.127. As to AAGGGGCT, the “PBM E-score” value is -0.109. Then ACCCATTA, with -0.223; and CGGTACGA, with -0.0518. For the sequence CCGATGCG, the “PBM E-score” value is 0.0673.

Consider GGCTTGGA, for which the “PBM E-score” value was -0.128. Consider GACAGAGA, for which the “PBM E-score” value was -0.0997. With CGACGTCG, the “PBM E-score” value is -0.22. Then GATTATCA, with 0.16; and AGTTGGCG, with 0.157.

In the case of GATGGTAA, the “PBM E-score” value was found to be 0.0115.

GAGTTAGA: the “PBM E-score” value is -0.0275.

For AATAAAAA, the “PBM E-score” value worked out at 0.212. For CGAAGTCG, the “PBM E-score” value is -0.0551. Then ACCATAGG, with 0.00774; and AAGGAGAC, with -0.0851; and CGCGTTTA, with -0.0505. With ATGTACGG the figure was 0.24; with CTTGTGGA, 0.016; with CATGGGAA, -0.0417. For AGGTAGCA, the “PBM E-score” value is -0.208. With CGAAGCCG, the “PBM E-score” value is 0.251. With ACATGCTA the figure was -0.134; with GGTAATAA, 0.136; with AGAGTCAA, -0.306. In the case of AGCAATAT, the “PBM E-score” value was determined as 0.11. Then CTAATTAC, with -0.0115; and CGCACGCG, with 0.113. For the sequence GAATGGGC, the “PBM E-score” value was -0.113. Then ACTAAAGG, with -0.0249; and ATTCACAA, with 0.11; and CCCCTTCC, with -0.224. With ATCCGATG the figure was 0.0876. Then ATCGGTGG, with -0.123; and GGGGGCAC, with -0.266; and GATCTGGC, with 0.105. Turning to CAGAGCAC, the “PBM E-score” value is -0.00762. Then CGAAGGCC, with -0.129. Take AGAGCGGG: the “PBM E-score” value was -0.113. Then AACTGGCT, with -0.188; and ACCCATCA, with -0.127; and AGGGCCCA, with -0.232. Then AGTGAACT, with -0.059; and GTCCCCTA, with -0.281. With CATACGAA the figure was 0.105; with CTTCCCGC, 0.0561. As for GAGTTGAA, the “PBM E-score” value was -0.175. With AATAAATC the figure was 0.147; with CCTAATCC, -0.275; with AAAAGGCG, 0.34.

Take GATAAGGC: the “PBM E-score” value turned out to be 0.216.

In the case of CTCCGCAG, the “PBM E-score” value is -0.00431. Then CTTCATTC, with -0.0223; and ATATCTGG, with -0.184. Then ACTACGAC, with -0.00693; and TAAATCCA, with -0.00287; and CGTAGAAG, with 0.178. With GGTTTGAC the figure was 0.0251. ATACGTGG: the “PBM E-score” value is 0.142.

As for CTGAGCTC, the “PBM E-score” value was -0.0853.

With CCCTAAAG, the “PBM E-score” value is -0.0667. On to CGGGGAGA, for which the “PBM E-score” value is -0.31.

For CACCCTAC, the “PBM E-score” value is -0.106. Then CTGGCGCC, with 0.314; and CGTGATCC, with -0.155; and CTGCCTTA, with -0.0771. Then ATCGGATA, with 0.202; and CACATTGC, with 0.126; and CTCGCTCA, with 0.0602. Then GCATATAA, with 0.221. As for GAGGATGC, the “PBM E-score” value is -0.124. For GATGCCCA, the “PBM E-score” value worked out at 0.158. As for CAAAAGAC, the “PBM E-score” value stood at 0.0577. With AGAATCGG the figure was 0.1; with CAAGGCCC, 0.00011. Then ACTATATG, with 0.135; and TTAGTGAA, with -0.0118. Take ATGTAGCA: the “PBM E-score” value is -0.00081.

For TAAAGTCA, the “PBM E-score” value is -0.0212. With TACCAGGA the figure was 0.00153.

As to AACCTCAG, the “PBM E-score” value is -0.0867. With AAGCAAGG, the “PBM E-score” value was -0.0277. With CTTAGAGA the figure was -0.0858. Consider CTAGAGAA, for which the “PBM E-score” value was found to be 0.23.

AGGGGAAT: the “PBM E-score” value turned out to be 0.0161. In the case of GGAAGCAC, the “PBM E-score” value amounted to 0.0646. As for CATATCCC, the “PBM E-score” value came to 0.0688. As for CGACTCAC, the “PBM E-score” value is -0.254.

For CGTACCTA, the “PBM E-score” value was -0.0292. Then CGCAAAAG, with 0.0708; and TATTGCAA, with 0.229. With GGGGAGAC the figure was -0.346; with AACGTATT, 0.195; with AGCAGTAT, 0.0883. With CAACATGA the figure was 0.118.

Turning to CAGCTAAA, the “PBM E-score” value was -0.0461. Turning to AAACCAAT, the “PBM E-score” value was 0.0131. Consider GCGTTAAA, for which the “PBM E-score” value was found to be 0.206. With GGAAACCC the figure was -0.187; with GCCTTTCC, 0.381; with GCATATCA, 0.135. With CCTTTCCG, the “PBM E-score” value was found to be 0.0145. Consider AAAATGCA, for which the “PBM E-score” value was -0.0731. For AACTCAGA, the “PBM E-score” value was 0.183. Then CACAGTGC, with 0.114; and ATCCACTA, with -0.0231; and CTCCCGAA, with -0.282. With CTTCACGC the figure was 0.225.

As to AGACGCCC, the “PBM E-score” value worked out at 0.0951. For AAATTTTA, the “PBM E-score” value was determined as 0.116.
